According to PubChem BioAssay AID504466 (National Center for Advancing Translational Sciences (NCATS), 2011):
The campaign covered roughly 330,000 compounds. About 4,200 (1.3%) were called active. This list was built around the results that the source calls inconclusive (neither active nor inactive); the mix of calls is not that of the screen. Calls follow the shape of the dose curve; as a rule, active = well fitted activation curve with a large enough effect; inconclusive = small, poorly fitted or top-dose-only effect; inactive = no such curve, though single readings can be large or run the other way. Where the call is inconclusive, the potency comes from a doubtful curve fit.

Assay: qHTS screen for small molecules that induce genotoxicity in human embryonic kidney (HEK293T) cells expressing luciferase-tagged ELG1; also: nearly all actives have a fitted effect of over 60% in size
Conditions: HEK293T ELG1-luciferase reporter, luminescence, 16 h; series mostly up to 46 µM
Method in brief: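 Screening used a luciferase reporter fused to human ELG1 in HEK293T cells. Luminescence was read on a CCD plate imager after 16 hr exposure and 30 min ONE-Glo incubation.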
Potency is read from the fitted curve at half-maximal effect; tags tell the direction and shape of the fitted curve.

| Compound | Potency |
| --- | --- |
| COc1ccccc1OC(C)C(=O)N(Cc1ccco1)C1CCS(=O)(=O)C1 (stereo unspecified) | inactive |
| COC(=O)c1ccc(NC(=S)Nc2ccccn2)cc1 | inconclusive: 14.6 µM [activator, partial curve] |
| CCOc1ccc(NC(=O)CN(C)C(=O)c2ccc(C)o2)cc1OCC | inactive |
| CCOc1ccc2nc(NC(=O)C3CCCN(S(=O)(=O)c4cccs4)C3)sc2c1 (stereo unspecified) | inactive |
| CC(=O)Nc1ccc(C(=O)OCC(=O)N2CCC(Cc3ccccc3)CC2)cc1 | inactive |
| CCOC(=O)c1sc2nc3n(c(=O)c2c1C)CCC(C)CC3 (stereo unspecified) | inconclusive: 14.6 µM [activator, partial curve] |
| CCc1nnc(NC(=O)CSc2ccc(-c3nc4ccc(C)cc4[nH]3)cn2)s1 | active: 13 µM |
| COc1ccc(C2CC2/C(=N/OC(=O)c2cccs2)c2ccccc2)cc1 (stereo unspecified) | inconclusive: 4.47 µM [activator, full curve] |
| CC(C)NC(=O)COc1coc(CN2CCN(c3ccccc3)CC2)cc1=O | inactive |
| COc1cccc(NC(=O)c2nnn(CCc3ccccc3)c2N)c1 | inconclusive: 18.4 µM [activator, partial curve] |
| O=C(Nc1ccc(F)cc1Cl)c1ccc2c(=O)n3c(nc2c1)CCCCC3 | inconclusive: 18.4 µM [activator, partial curve, poor fit] |
| C=CCNc1nc(-c2sc(NC(C)=O)nc2C)cs1 | inconclusive: 10.3 µM [activator, partial curve, poor fit] |
| CCOc1ccc2nc(NC(=O)C3CCCN(S(=O)(=O)c4cccc5nonc45)C3)sc2c1 (stereo unspecified) | inactive |
| O=C(Nc1cnn(Cc2ccc(F)cc2)c1)c1cc(-c2ccco2)on1 | inconclusive: 16.4 µM [activator, partial curve, poor fit] |
| Cn1cccc1CNC(=O)Nc1ccccc1 | inconclusive: 20.6 µM [activator, partial curve] |
| C(#Cc1ccc(C#CCN2CCCC2)cc1)CN1CCCC1 | inconclusive: 29.1 µM [activator, single point] |
| Clc1cccc(Nc2nc(-c3cccnc3)cs2)c1 | inconclusive: 4.11 µM [activator, full curve, poor fit] |
| O=C(CSc1ccsc1[N+](=O)[O-])NCCc1ccccc1 | inactive |
| O=[N+]([O-])c1ccc(NCc2ccc(Cl)cc2)nc1 | inconclusive: 13 µM [activator, partial curve, poor fit] |
| C#CCn1cc(Cl)cc(C(=O)Nc2ccccc2)c1=O | inactive |
| Cc1ccc(O)c(-c2cc(C(=O)Nc3cccnc3)[nH]n2)c1 | inconclusive: 7.3 µM [activator, partial curve] |
